Results published in the supplement of paper PMC8728848.
Some of the results follow.

Legend:
Assay in all cases: glycan array binding signal (z-score within array); higher = stronger binding
Conditions in all cases: glycan notation: IUPAC condensed, linker removed
[1] = molecular target: Gal(b1-4)GlcNAc(b1-3)Gal(b1-4)GlcNAc(b1-3)Gal(b1-4)GlcNAc(b1-3)Gal(b1-4)GlcNAc(b1-2)Man(a1-3)[Gal(b1-4)GlcNAc(b1-3)Gal(b1-4)GlcNAc(b1-3)Gal(b1-4)GlcNAc(b1-3)Gal(b1-4)GlcNAc(b1-2)Man(a1-6)]Man(b1-4)GlcNAc(b1-4)[Fuc(a1-6)]GlcNAc
Summary of the method: (§1)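 Glycan array binding is given as a within-array Z-score, which can be read as non-binding when negative. The arrays, 3228 of them, came from the Consortium for Functional Glycomics database and were retained only where the protein sequence was available. Z-scores were averaged across arrays of the same protein sequence at different concentrations or buffers and across linkers.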

[2] = molecular target: Gal(b1-4)GlcNAc(b1-3)Gal(b1-4)GlcNAc(b1-3)Gal(b1-4)GlcNAc(b1-3)Gal(b1-4)GlcNAc(b1-2)[Gal(b1-4)GlcNAc(b1-3)Gal(b1-4)GlcNAc(b1-3)Gal(b1-4)GlcNAc(b1-3)Gal(b1-4)GlcNAc(b1-6)]Man(a1-6)[Gal(b1-4)GlcNAc(b1-3)Gal(b1-4)GlcNAc(b1-3)Gal(b1-4)GlcNAc(b1-3)Gal(b1-4)GlcNAc(b1-2)Man(a1-3)]Man(b1-4)GlcNAc(b1-4)[Fuc(a1-6)]GlcNAc
Summary of the method: as §1

[3] = molecular target: Gal(b1-4)GlcNAc(b1-3)Gal(b1-4)GlcNAc(b1-3)Gal(b1-4)GlcNAc(b1-3)Gal(b1-4)GlcNAc(b1-3)Gal(b1-4)GlcNAc(b1-2)Man(a1-3)[Gal(b1-4)GlcNAc(b1-3)Gal(b1-4)GlcNAc(b1-3)Gal(b1-4)GlcNAc(b1-3)Gal(b1-4)GlcNAc(b1-3)Gal(b1-4)GlcNAc(b1-2)Man(a1-6)]Man(b1-4)GlcNAc(b1-4)GlcNAc
Summary of the method: as §1

[4] = molecular target: Gal(b1-4)GlcNAc(b1-3)Gal(b1-4)GlcNAc(b1-3)Gal(b1-4)GlcNAc(b1-3)Gal(b1-4)GlcNAc(b1-3)Gal(b1-4)GlcNAc(b1-2)Man(a1-3)[Gal(b1-4)GlcNAc(b1-3)Gal(b1-4)GlcNAc(b1-3)Gal(b1-4)GlcNAc(b1-3)Gal(b1-4)GlcNAc(b1-3)Gal(b1-4)GlcNAc(b1-2)Man(a1-6)]Man(b1-4)GlcNAc(b1-4)[Fuc(a1-6)]GlcNAc
Summary of the method: as §1

[5] = molecular target: Gal(b1-4)GlcNAc(b1-3)Gal(b1-4)GlcNAc(b1-3)Gal(b1-4)GlcNAc(b1-3)Gal(b1-4)GlcNAc(b1-3)Gal(b1-4)GlcNAc(b1-2)[Gal(b1-4)GlcNAc(b1-3)Gal(b1-4)GlcNAc(b1-3)Gal(b1-4)GlcNAc(b1-3)Gal(b1-4)GlcNAc(b1-3)Gal(b1-4)GlcNAc(b1-6)]Man(a1-6)[Gal(b1-4)GlcNAc(b1-3)Gal(b1-4)GlcNAc(b1-3)Gal(b1-4)GlcNAc(b1-3)Gal(b1-4)GlcNAc(b1-3)Gal(b1-4)GlcNAc(b1-2)Man(a1-3)]Man(b1-4)GlcNAc(b1-4)[Fuc(a1-6)]GlcNAc
Summary of the method: as §1

[6] = molecular target: Gal(b1-4)GlcNAc(b1-3)Gal(b1-4)GlcNAc(b1-3)Gal(b1-4)GlcNAc(b1-3)Gal(b1-4)GlcNAc(b1-3)Gal(b1-4)GlcNAc(b1-3)Gal(b1-4)GlcNAc(b1-2)Man(a1-3)[Gal(b1-4)GlcNAc(b1-3)Gal(b1-4)GlcNAc(b1-3)Gal(b1-4)GlcNAc(b1-3)Gal(b1-4)GlcNAc(b1-3)Gal(b1-4)GlcNAc(b1-3)Gal(b1-4)GlcNAc(b1-2)Man(a1-6)]Man(b1-4)GlcNAc(b1-4)GlcNAc
Summary of the method: as §1

[7] = molecular target: Gal(b1-4)GlcNAc(b1-3)Gal(b1-4)GlcNAc(b1-3)GalNAc
Summary of the method: as §1

[8] = molecular target: Gal(b1-4)GlcNAc(b1-3)Gal(b1-4)GlcNAc(b1-3)[Gal(b1-4)GlcNAc(b1-3)Gal(b1-4)GlcNAc(b1-6)]GalNAc
Summary of the method: as §1

[9] = molecular target: Gal(b1-4)GlcNAc(b1-3)Gal(b1-4)GlcNAc(b1-6)[Gal(b1-3)]GalNAc
Summary of the method: as §1

[10] = molecular target: Gal(b1-4)GlcNAc(b1-3)Gal(b1-4)[Fuc(a1-3)]GlcNAc(b1-3)Gal(b1-4)[Fuc(a1-3)]GlcNAc
Summary of the method: as §1

[11] = molecular target: Gal(b1-4)GlcNAc(b1-3)GalNAc
Summary of the method: as §1

[12] = molecular target: Gal(b1-4)GlcNAc(b1-3)[Fuc(a1-3)GlcNAc(b1-6)]Gal(b1-4)Glc
Summary of the method: as §1

[13] = molecular target: Gal(b1-4)GlcNAc(b1-3)[Gal(b1-4)GlcNAc(b1-6)]Gal(b1-4)GlcNAc
Summary of the method: as §1

[14] = molecular target: Gal(b1-4)GlcNAc(b1-3)[GlcNAc(b1-6)]Gal(b1-4)GlcNAc
Summary of the method: as §1

[15] = molecular target: Gal(b1-4)GlcNAc(b1-6)Gal(b1-4)GlcNAc
Summary of the method: as §1

[16] = molecular target: Gal(b1-4)GlcNAc(b1-6)GalNAc
Summary of the method: as §1

[17] = molecular target: Gal(b1-4)GlcNAc(b1-6)[Gal(b1-3)]GalNAc
Summary of the method: as §1

[18] = molecular target: Gal(b1-4)GlcNAc(b1-6)[Gal(b1-4)GlcNAc(b1-3)]GalNAc
Summary of the method: as §1

Gal(b1-4)GlcNAc6P = molecular target: Gal(b1-4)GlcNAc6P
Summary of the method: as §1

Gal(b1-6)Gal = molecular target: Gal(b1-6)Gal
Summary of the method: as §1

Gal3S(b1-3)GalNAc = molecular target: Gal3S(b1-3)GalNAc
Summary of the method: as §1

Gal3S(b1-3)GlcNAc = molecular target: Gal3S(b1-3)GlcNAc
Summary of the method: as §1

[19] = molecular target: Gal3S(b1-3)[Fuc(a1-4)]GlcNAc
Summary of the method: as §1

B1: PX15618A-bth-503-24-503 (Bacteroides thetaiotaomicron) (protein)
chain: NKSEDKLSGDDFWAQGNETNAEAFLLSIYNSFRNATMSQRPFLTYSGDMRCAPITAYSTGDKYVAYLANNDMGELRNTYPDDARGGLIMQWDVFYTAIQDANILLAEIDKVPGMDELKRSRFKAEAIFMRSLSYFFIVRAFGDVPYYTNAYNEAPLPRTNMVIVLQNCLADLQPLLDDDPGAEVLPWSYSSYSSKGIRASRGSVIALMMHINLWLVQFDAQNKEQYYRNVVSLGEELERNNGAYSLLDINRSSVIFAGGSDEGLFEIAQNINFNEIFMMNAKFSDNVSYSCLNKSMPLFCYSGDYLMTLFPMYEDDARKELWFDEKIYSTSVSSSAPKEIKKFWNIDTYGNGTITSNSGNQIVFRYAGALLLYAEALAALGTNDTKACELLNRVRNRAHASEINTSGSELMDAIFWERCRELIGEGHYYYDLVRTGKVYNRNYCMNPMTRTNFNVGAWTWPIHRNALKNNTQIGLNLFWE
In the case of B1, the “glycan array binding signal (z-score)” value [1] is reported as 0.864, the “glycan array binding signal (z-score)” value [2] is reported as 0.445 and the “glycan array binding signal (z-score)” value [3] is reported as 2.83. For the same binder, the “glycan array binding signal (z-score)” value [4] was -0.115, the “glycan array binding signal (z-score)” value [5] was 1.51 and the “glycan array binding signal (z-score)” value [6] was 2.95. For the same binder, the “glycan array binding signal (z-score)” value [7] was -0.08, the “glycan array binding signal (z-score)” value [8] was 0.447 and the “glycan array binding signal (z-score)” value [9] was -0.114. For the same binder, the “glycan array binding signal (z-score)” value [10] was -0.207, the “glycan array binding signal (z-score)” value [11] was -0.749 and the “glycan array binding signal (z-score)” value [12] was 0.176. The “glycan array binding signal (z-score)” value [13] was -0.074, the “glycan array binding signal (z-score)” value [14] was -0.428 and the “glycan array binding signal (z-score)” value [15] was 0.161. For the same binder, the “glycan array binding signal (z-score)” value [16] was -0.209, the “glycan array binding signal (z-score)” value [17] was -0.622 and the “glycan array binding signal (z-score)” value [18] was -0.3. The “glycan array binding signal (z-score)” value (Gal(b1-4)GlcNAc6P) was 0.481, the “glycan array binding signal (z-score)” value (Gal(b1-6)Gal) was -0.39 and the “glycan array binding signal (z-score)” value (Gal3S(b1-3)GalNAc) was -0.337. For the same binder, the “glycan array binding signal (z-score)” value (Gal3S(b1-3)GlcNAc) was -0.228 and the “glycan array binding signal (z-score)” value [19] was -0.063.
